Test results reported in the supplement of paper PMC3334620.
Whole data set: some 33,000 sequences, median “E-score (-0.5 to 0.5)” near -0.056, cut for the highest 2% near 0.38. This is one part of the list.

Biological target: Stb4 (UniProt P50104)
Test: PBM E-score (8-mer binding enrichment) (E-score (-0.5 to 0.5)); higher = stronger / more preferred TF binding; most listed sequences are background and not binding sites
Settings: protein concentration: 200 nM; construct: GST-DNA-binding domain
How it was run: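 Using PURExpress in vitro transcription/translation, GST-tagged yeast transcription factors were made in full-length or DNA-binding-domain form. These were applied at about 100-200 nM to double-stranded universal all-10-mer Agilent arrays, and bound protein was detected with fluorescent anti-GST. Scans were normalised with masliner before the Universal PBM Analysis Suite assigned E-scores to ungapped eight-base words pooled with their reverse complements.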

Row | Sequence | PBM E-score
1 | AGTAGGTA | -0.153
2 | CAATGTAC | -0.0745
3 | GGATCAAC | 0.0775
4 | GATGACTA | -0.0894
5 | ATACTAGC | 0.00069
6 | AACGTTAA | 0.123
7 | ATTAGGAA | 0.00373
8 | AGCGGACT | -0.152
9 | GATTTCCC | 0.109
10 | CGGCTAAC | 0.331
11 | GATAGAAC | 0.0122
12 | ATTGCTGA | -0.24
13 | AGATCTTC | -0.0558
14 | ATCCGGAC | 0.336
15 | AAGAACGC | -0.0267
16 | CTCGAGCC | 0.0289
17 | ATTGGTTG | -0.166
18 | ATAAAAAT | -0.0765
19 | CTGTAATA | 0.0594
20 | CCCGGGGA | 0.247
21 | ATTTACAC | -0.0341
22 | CCCCATTA | -0.358
23 | GAATGTAC | 0.0294
24 | CCGGCCAG | 0.161
25 | CGGAGATC | 0.205

Row | Sequence | PBM E-score
26 | CAACTCTA | -0.00307
27 | ACCTTATG | -0.213
28 | GTCAATAA | 0.0146
29 | TATGATGA | -0.0204
30 | CGCTACAA | 0.032
31 | AAGTAATG | 0.0876
32 | CGGACGGC | 0.214
33 | AATGCTAG | 0.0387
34 | AGTTCGCC | 0.085
35 | ATGTGGCA | -0.101
36 | AAGCGATA | -0.28
37 | CCGGGCCA | 0.18
38 | GTAAAGCA | -0.144
39 | ATAAATAC | 0.0693
40 | CGAAACGA | -0.00013
41 | AAGTTTTG | 0.0245
42 | GCGGGCGA | 0.109
43 | AGATCTAC | -0.179
44 | ATAGATGC | -0.165
45 | CAGTCGGA | 0.316
46 | CTGAGTGC | -0.083
47 | CTACTAAA | -0.112
48 | CTTGGTTA | -0.139
49 | GACCCGTA | 0.0406
50 | AACTCCCG | 0.356

Row | Sequence | PBM E-score
51 | TTACTCAA | -0.00049
52 | CATGCCAA | -0.257
53 | ATGAAAGA | -0.0806
54 | ACTCGGCC | 0.232
55 | CTTCCCCC | -0.213
56 | ATGCATAC | -0.194
57 | AAATAATC | -0.101
58 | ACGCGTTC | -0.00022
59 | CGACTCCG | 0.211
60 | TGGGCAAA | -0.168
61 | AAAGCGCA | -0.0833
62 | CTAAAATA | -0.119
63 | GAGCCATC | -0.16
64 | CCACGAAA | -0.181
65 | CCCTCCCG | 0.277
66 | ACTTGATA | -0.136
67 | CTGCGCCC | -0.166
68 | CGATTGCG | 0.136
69 | CCTTTACC | 0.0566
70 | AGCCATAG | -0.316
71 | AGTGGTGA | -0.0529
72 | CCGGACGC | 0.202
73 | ACAAAACA | -0.105
74 | ATGTAGTG | -0.175
75 | GTTATAAA | -0.0264

Row | Sequence | PBM E-score
76 | CTCACAGA | -0.146
77 | GTTAGTAA | -0.198
78 | AAGACTTG | -0.135
79 | AGTTGCAG | -0.148
80 | ACGCGCGT | -0.0483
81 | AAAGGGCT | -0.241
82 | AGCCTCGG | 0.381
83 | AGATGTCA | -0.0419
84 | ACGTACAC | -0.174
85 | TATTATAA | -0.07
86 | AAGCTCCC | 0.0273
87 | GGTTATGA | 0.141
88 | CAGGCTCA | -0.176
89 | GGTGATCA | -0.114
90 | GGCTAAGA | 0.0718
91 | AACCAGTT | -0.0414
92 | AGCGCCGG | 0.24
93 | AGACATTG | -0.154
94 | ACGGAGTA | 0.136
95 | TACTGAAA | 0.0265
96 | GCCCCGAC | 0.203
97 | CGTACACC | 0.085
98 | CACCCGAC | 0.384
99 | CTGGCGTC | -0.263
100 | AAGCGCCA | -0.199

Row | Sequence | PBM E-score
101 | CCTTTTCA | -0.197
102 | ATTCCCTA | -0.0343
103 | AGTCCAAA | -0.0554
104 | ATTGTTGC | -0.213
105 | ACTTCAAT | 0.00032
106 | CCAAAACG | -0.121
107 | CCACAGGA | -0.0975
108 | AAGAGCCC | 0.0256
109 | TACACCAA | -0.076
110 | AATAGTCT | -0.236
111 | AGGCCACT | -0.141
112 | TCGCAGAA | -0.334
113 | ACAGTTTC | 0.0561
114 | ATGTCGGC | 0.138
115 | TACCAAGA | 0.0915
116 | AACTGCCC | -0.0962
117 | CCCCAGCA | -0.16
118 | GCAGTTGA | -0.136
119 | ATATCCTA | -0.0944
120 | ACGTGCGG | 0.0609
121 | CTCTTCTA | -0.188
122 | GGATTTAC | 0.114
123 | CCCCACGG | 0.131
124 | GAATCTCA | -0.0758
125 | CTCAGATC | -0.103

Row | Sequence | PBM E-score
126 | GAAGGTAA | 0.1
127 | AGCTACTC | -0.104
128 | GCTACATA | -0.0574
129 | CCACGACC | -0.272
130 | CGGTCATC | 0.0638
131 | AGCCACTA | -0.18
132 | AAAATGGG | -0.141
133 | CACATTAC | -0.045
134 | AGCTCGGC | 0.412
135 | CACTATAG | -0.239
136 | GAGAAGGA | -0.0876
137 | AGCCTGAT | -0.256
138 | ATACGCAC | 0.0268
139 | ATCGTCCA | -0.0555
140 | GGCGTCGA | -0.115
141 | CCGACCTC | 0.311
142 | TGTGGGAA | -0.216
143 | CTCAGACA | -0.257
144 | AATCATTG | -0.336
145 | ACGCCGTC | 0.00534
146 | ACTAATGC | 0.0781
147 | AAGAACTG | -0.0907
148 | TCATATAA | -0.151
149 | ATCGAATA | -0.143
150 | AGCTGCCT | -0.183

Row | Sequence | PBM E-score
151 | CCACCAGA | -0.132
152 | TAAATTCA | -0.225
153 | GTACATCA | -0.00531
154 | CTCTAGAA | -0.208
155 | GGGAGAGA | -0.105
156 | AGCTTTAG | -0.246
157 | CCTTGGGC | -0.177
158 | GAATTGGC | -0.0889
159 | ATAAACAT | -0.0328
160 | GTATGCAA | -0.0553
161 | AACCGGTA | 0.146
162 | ACCGTGTA | -0.0765
163 | TAAGCTGA | 0.0804
164 | CAATCCAC | -0.0708
165 | CTGAAGAA | -0.226
166 | CTCACCAC | -0.102
167 | TAACCTAA | -0.105
168 | ATATGAGA | -0.0361
169 | CCCATTAG | -0.321
170 | ACTAATTG | -0.0257
171 | GAGAGTGC | -0.236
172 | ACGTCGAG | -0.227
